Data on 13 compounds can be found in PubChem BioAssay (NCATS).

In general, AC50 refers to the midpoint of the concentration-response curve, whichever way the signal moves.

The nature of assay [1]: qHTS drug screen for cell cycle checkpoint inhibitors in PARPi-resistant BRCA-mutant ovarian cancer cell lines. (AID 1963452). As to conditions: PEO1/OlaR viability, CellTiter-Glo luminescence, 96 h. Put shortly:
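PEO1, PEO4 and PEO1/OlaR ovarian cancer cells, 600 per well, exposed 96 h at 37C to a dilution series. Viability read by CellTiter-Glo luminescence, normalized to DMSO and empty wells; activity summarized as Z-AUC.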
For orientation: qHTS replaces the single test concentration by a dilution series.

Assay [2] in a line: qHTS for identification of novel therapeutic agents for treatment of microphthalmiaassociated transcription factor (MiT) renal cell carcinoma (RCC) (AID 1963991).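 For z-score: curves scaled with 100% = DMSO viability and 0% = empty wells.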 The following applies: CellTiter-Glo, 48 h; for z-score: stronger effect = lower value. In outline: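 UOK109/UOK124/UOK145 (TFE3 fusions, three partners); 500 cells/well; MIPE v4.0, 1912 cpds, 11 conc.; 48 h, 37 C; CellTiter-Glo, 15 min RT; lum. Norm.: DMSO 100%, empty 0%.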

[3] abbreviates: measured here: PEO1 parental viability.
[4] abbreviates: TFE3-RCC UOK109 viability, measured here: UOK109 Z-AUC.
Setting [5] is: TFE3-RCC viability, measured here: UOK124 Z-AUC.
[6] abbreviates: TFE3-RCC viability, measured here: UOK124 cell viability.
Where [7] appears, read: TFE3-RCC viability, measured here: UOK145 Z-AUC.
Setting [8] is: TFE3-RCC viability, measured here: UOK145 cell viability.

The structures appear in SMILES notation. The list shows a part of the results. Further columns of the screen follow, without active or inactive calls. For some assays here: Most of these compounds were active or inconclusive in the main read-out, so they are no random draw. Words in brackets tell the shape of the fitted curve; partial curves, single points and poor fits give uncertain potencies.
Tags give direction and shape of the fitted curve.

Consider `Cn1cc(-c2ccncc2)c(-c2ccc(OCc3ccc4ccccc4n3)cc2)n1`, for which the AC50 in assay [1] (setting [3]) is 11 µM [falling, partial curve]; in assay [1] (measured here: PEO4 viability), 19.5 µM [falling, single point]; in assay [2] (setting [6]), 9.35 µM [falling, partial curve]. Besides, the z-score in assay [2] (setting [4]) is 0.528; in assay [2] (setting [5]) it was 0.55; in assay [2] (setting [7]) it was 0.502.
`C[N+](C)([O-])CCNc1ccc(NCC[N+](C)(C)[O-])c2c1C(=O)c1c(O)ccc(O)c1C2=O`: the AC50 in assay [1] (setting [3]) was 6.16 µM [falling, partial curve]; in assay [1] (measured here: PEO4 viability), 12.3 µM [falling, partial curve]; in assay [2] (setting [8]), 18.7 µM [falling, partial curve]. The z-score in assay [2] (setting [4]) is -0.234; in assay [2] (setting [5]) it was 1.66; in assay [2] (setting [7]), 0.198.
Take `CCOc1ccn(-c2ccc(F)cc2)c(=O)c1C(=O)Nc1ccc(Oc2ccnc(N)c2Cl)c(F)c1`: the concentration at half-maximal activity (AC50) in assay [1] (setting [3]) was 6.16 µM [falling, partial curve, poor fit]; in assay [1] (measured here: PEO4 viability), 11 µM [falling, partial curve]; in assay [2] (setting [8]), 26.4 µM [falling, single point]. The z-score was 0.0574 in assay [2] (setting [4]), -0.0105 in assay [2] (setting [5]) and 0.582 in assay [2] (setting [7]).
Take `CC1=C(C(=O)Nc2cc3cn[nH]c3cc2F)C(c2ccc(Cl)cc2F)N=C(c2ccnc(Cl)c2)N1` (stereo not given): the AC50 was 13.8 µM [falling, partial curve, poor fit] in assay [1] (setting [3]); 27.5 µM [falling, single point] in assay [1] (measured here: PEO4 viability); 16.6 µM [falling, partial curve] in assay [2] (setting [6]). The z-score in assay [2] (setting [4]) was 1.23; in assay [2] (setting [5]) it was 0.335; in assay [2] (setting [7]), 1.01.
Regarding `Nc1nc(=O)n([C@H]2C[C@H](O)[C@@H](CO)O2)cc1F`, the AC50 in assay [1] (setting [3]) is 0.155 µM [falling, full curve]; in assay [1] (measured here: PEO4 viability), 1.74 µM [falling, partial curve]; in assay [2] (setting [8]), 0.526 µM [falling, full curve]. Further, the z-score in assay [2] (setting [4]) was 0.154; in assay [2] (setting [5]) it was -2.53; in assay [2] (setting [7]) it was -0.675.
On to `O=C1NCCc2[nH]c(-c3ccncc3)cc21`, for which the AC50 is 5.49 µM [falling, single point] in assay [1] (setting [3]); 5.49 µM [falling, single point] in assay [1] (measured here: PEO4 viability); 4.69 µM [falling, full curve] in assay [2] (setting [6]); 7.43 µM [falling, full curve] in assay [2] (setting [8]). For the same compound, the z-score in assay [2] (setting [4]) is -0.0168; in assay [2] (setting [5]) it was 0.216; in assay [2] (setting [7]), 0.275.
Consider `N#CC[C@H](C1CCCC1)n1cc(-c2ncnc3[nH]ccc23)cn1`, for which the AC50 in assay [1] (setting [3]) was 24.5 µM [falling, single point]; in assay [1] (measured here: PEO4 viability), 27.5 µM [falling, single point]; in assay [2] (setting [8]), 18.7 µM [falling, partial curve, poor fit]. The figures for the z-score in assay [2] (setting [4]), in assay [2] (setting [5]) and in assay [2] (setting [7]) were 0.386, 0.599 and 0.171, respectively.
On to `CC[C@H](CC#N)OC(=O)N[C@@H](C)c1cccc(NC(=O)Nc2ccc(-c3cnco3)c(OC)c2)c1`, for which the half-maximal activity concentration (AC50) in assay [1] (setting [3]) was 0.871 µM [falling, full curve]; in assay [1] (measured here: PEO4 viability), 1.38 µM [falling, full curve, poor fit]; in assay [2] (setting [8]) it was 0.418 µM [falling, full curve]. Also, the z-score is 0.0278 in assay [2] (setting [4]), 0.185 in assay [2] (setting [5]) and -0.449 in assay [2] (setting [7]).
Consider `O=C(Nc1cccc(C(F)(F)F)c1)Nc1cc(S(=O)(=O)NC2CC2)ccc1-c1ccsc1`, for which the AC50 in assay [1] (setting [3]) was 27.5 µM [falling, single point]; in assay [1] (measured here: PEO4 viability) it was 15.5 µM [falling, single point]; in assay [2] (setting [6]), 37.2 µM [falling, single point]. The z-score in assay [2] (setting [4]) stood at 0.711; in assay [2] (setting [5]), 0.212; in assay [2] (setting [7]), 0.712.
For `CCOc1cc(C(=O)Nc2ccc(Cl)c(-c3nc4ccccc4[nH]3)c2)cc(OCC)c1OCC`, the AC50 was 6.92 µM [falling, partial curve] in assay [1] (setting [3]); 15.5 µM [falling, partial curve, poor fit] in assay [1] (measured here: PEO4 viability); 11.8 µM [falling, partial curve] in assay [2] (setting [8]). The z-score is -1.26 in assay [2] (setting [4]), 0.229 in assay [2] (setting [5]) and -0.209 in assay [2] (setting [7]).
As for `CC(C)C[C@H](NC(=O)c1cc2ccccc2s1)C(=O)N1CCN(C(=O)[C@H](CO)NS(=O)(=O)c2ccc(Cl)cc2Cl)CC1`, the AC50 in assay [1] (setting [3]) was 24.5 µM [falling, single point]; in assay [1] (measured here: PEO4 viability), 13.8 µM [falling, partial curve]; in assay [2] (setting [6]) it was 23.5 µM [falling, single point]; in assay [2] (setting [8]), 29.6 µM [falling, single point]. Moreover, the z-score in assay [2] (setting [4]) was -0.122; in assay [2] (setting [5]) it was 0.541; in assay [2] (setting [7]), 0.2.
In the case of `O=C(Nc1cccc(Cl)c1)Nc1ncc(CCNc2ncnc3ccsc23)s1`, the AC50 in assay [1] (setting [3]) was 12.3 µM [falling, partial curve]; in assay [1] (measured here: PEO4 viability), 24.5 µM [falling, single point]; in assay [2] (setting [8]), 14.8 µM [falling, partial curve]. Further, the z-score in assay [2] (setting [4]) was 0.82; in assay [2] (setting [5]) it was -0.809; in assay [2] (setting [7]), 0.46.
`O=C(NOCC(O)CO)c1cc(Br)c(F)c(F)c1Nc1ccc(I)cc1F` (stereo not given): the AC50 is 3.09 µM [falling, partial curve] in assay [1] (setting [3]); 8.71 µM [falling, partial curve] in assay [1] (measured here: PEO4 viability); 18.7 µM [falling, partial curve, poor fit] in assay [2] (setting [8]). Besides, the z-score in assay [2] (setting [4]) is -1.35; in assay [2] (setting [5]), -0.742; in assay [2] (setting [7]) it was -0.316.
